According to PubChem BioAssay AID1347073 (National Center for Advancing Translational Sciences (NCATS), 2019):
Screen size: about 45,000 compounds; about 200 (0.44%) were called active. About 7% were inconclusive and are not listed. The call rests on the fitted dose curve; in most records, active means well fitted activation curve with a large enough effect; inconclusive means small, poorly fitted or top-dose-only effect; inactive means no such curve, though single readings can be large or run the other way. The list shows a part of the results.

Test: qHTS of TDP-43 Inhibitors: NCGC Sytravon Library Screen; further: 0% is about no effect; nearly all actives have a fitted effect of over 55% in size
Conditions: yeast TDP-43 toxicity rescue, BacTiter-Glo growth, 24 h; series mostly up to 46.1 µM; growth rescue (activation): at the top concentration
From the text: The goal of this project is to identify new chemical probes capable of reversing the toxicity associated with TDP-43 which is associated with frontotemporal lobar degeneration and amyotrophic lateral sclerosis. These compounds will provide a complementary approach to deciphering the tangled mechanisms of toxicity and protection that we have uncovered through genome-wide genetic screens and are beginning to uncover in a large-scale proteomics analysis with mass spectroscopy. To this end, a miniaturized assay was developed to be screened against the Molecular Libraries Small Molecule Repository (MLSMR) to discover TDP-43 inhibitors. Please note that in the set-up this yeast-based assay compounds that inhibit as TDP-43, have a read-out as activators. NIH Chemical Genomics Center [NCGC] NIH Molecular Libraries Probe Centers Network [MLPCN] Assay Submitter (PI): Susan Lindquist, Whitehead Institute/MIT MLPCN Grant: R21 NS060957
Dispense 2.5 microL yeast galactose medium per 1536-well plate, pin compound, dispense 2.5 microL TDP-43 expressing yeast in galactose medium at OD600=0.02 (pregrown in raffinose medium to mid-log phase) per well, incubate for 24 hr at 30 deg C, and cell growth will be measured using 5 microL of Bactiter/Glo reagent to entire plate and read using Luminescence Protocol in ViewLux.

SMILES | growth rescue (activation)
COc1ccc(-n2nc(C(=O)NCC(=O)N3CCOCC3)c3ccccc3c2=O)cc1OC | inactive: 3.61%
CCCCC(O)(CCCC)C(=O)N/N=C(\C)c1ccc(Cl)cc1 | inactive: 5.34%
O=S(=O)(c1ccccc1)N1CN(c2ccc(F)cc2F)c2nc3ccccc3nc21 | inactive: 10.1%
Nc1ccc2oc(Cc3ccc(Cl)cc3)nc2c1 | inactive: -0.897%
Cc1ccc(NC(=O)c2cccc(S(=O)(=O)N3CCN(C)CC3)c2)cc1F | inactive: -7.89%
Cc1oc2c(CN3CCCCC3)c(O)ccc2c(=O)c1-c1ccc(Br)cc1 | inactive: -0.275%
CC(C)CN(CC(C)C)C(=O)Nc1cccc([N+](=O)[O-])c1 | inactive: 15.6%
CC(=O)N=Nc1[nH]c(N)c2ccccc12 | inactive: 15.6%
O=C(N/N=C/c1ccc(O)cc1O)c1ccc(CN2C(=O)c3cccc4cccc2c34)cc1 | inactive: 32.2%
CC(=O)N1CCN(c2ccccc2NC(=O)c2ccc(-c3cccc([N+](=O)[O-])c3)o2)CC1 | inactive: 2.17%
COC(=O)c1ccc(C(=O)N2CCCC(Nc3ccc(F)c(F)c3)C2)cc1 (configuration not stated) | inactive: 15.5%
O=C1[C@@H]2[C@@H]3C[C@@H]([C@H]4ON=C(c5ccc(Cl)cc5)[C@@H]34)[C@@H]2C(=O)N1c1ccc2c(c1)OCO2 | inactive: 5.46%
O=C(NC1CC1)c1cccc(Br)c1 | inactive: 12%
Cc1ccc(S(=O)(=O)NCC2CCC(C(=O)NC3CCCCC3)CC2)cc1 (configuration not stated) | inactive: 17.6%
O=C(c1cn(-c2ccccc2)nc1-c1ccc(Cl)cc1)N1CCOCC1 | inactive: 8.51%
COc1cc(OC)c(NC(=O)CCNS(=O)(=O)c2ccc3c(c2)oc(=O)n3C)cc1Cl | inactive: -20.5%
O=C(N/N=C/C=C\c1ccccc1[N+](=O)[O-])c1cc(-c2ccc3ccccc3c2)n[nH]1 | inactive: 12.6%
COc1ccccc1C1C2=C(CC(C)(C)CC2=O)Nc2nnnn21 (configuration not stated) | inactive: -4.86%
CC1=NN(c2nc(-c3ccccc3)cs2)C(=O)C1N=Nc1ccccc1 (configuration not stated) | inactive: 11.5%
NS(=O)(=O)c1ccc(CCNc2nc(C(F)(F)F)nc3ccccc23)cc1 | inactive: 10.7%
Cc1sc2ncn(CCn3cnc4sc(C)c(C)c4c3=O)c(=O)c2c1C | inactive: -0.822%
Cc1ccc(C2=NC3(CCCC3)NC2=S)cc1 | inactive: 25%
CC(C)OC(=O)C[N+](C)(C)CCN1C(=O)C2C(c3ccccc3)C=CC(c3ccccc3)C2C1=O (configuration not stated) | inactive: 11%
COCc1cccc(C(=O)NC(c2ccccc2)c2ccccc2)c1 | inactive: 15.9%
COc1ccccc1N1CN(S(=O)(=O)c2ccc(C)cc2)c2nc3ccccc3nc21 | inactive: 10.7%
Cc1cccc(N(CC(=O)Nc2ccc(-c3nc4ccc(C)cc4s3)cc2)S(C)(=O)=O)c1 | inactive: 14%

SMILES | growth rescue (activation)
CS(=O)(=O)N1CCCC(C(=O)Nc2ccccc2F)C1 (configuration not stated) | inactive: 7.63%
Cc1cc(C)c(NC(=O)c2ccccc2C(=O)c2ccccc2)c(C)c1 | inactive: -12.2%
COc1ccc(NC(=O)C2CCC(CNS(=O)(=O)c3cccs3)CC2)cc1OC (configuration not stated) | inactive: 5.16%
Cc1ccc(NC(=O)CN2C(=O)NC(C)(c3ccc(Cl)cc3)C2=O)c(Br)c1 (configuration not stated) | inactive: 12.8%
Cc1ccc(C)c(N2CC(C(=O)Nc3nccs3)CC2=O)c1 (configuration not stated) | inactive: -6.02%
Cc1ccc(OCCC(=O)N2CCN(c3ccc(O)cc3)CC2)cc1 | inactive: 20.9%
COc1ccc(N(CC(=O)NCC2CCCO2)S(=O)(=O)c2ccccc2)cc1OC (configuration not stated) | inactive: -2.11%
Cc1nc2ccccc2nc(C)c1=NOCC(=O)N(c1ccccc1)C(C)C | inactive: 7.41%
CC(=O)c1ccc(OC2(C)CCN(Cc3ccc4ccccc4c3)C2)cc1 (configuration not stated) | inactive: -18.4%
CCCN1CCC(NC(=O)Nc2ccc([N+](=O)[O-])cc2)CC1 | inactive: -5.51%
CC(C)(O)C#Cc1ccc(CN2CCN(Cc3ccsc3)C(CCO)C2)s1 (configuration not stated) | inactive: 12%
O=[N+]([O-])c1ccc(/C=N/NC(=S)Nc2ccccc2)o1 | inactive: 17.2%
CCOC(=O)c1cc(-c2ccc([N+](=O)[O-])cc2)nc2c1c(=O)[nH]c(=O)n2Cc1ccccc1 | inactive: 7.44%
CN(C)c1ccc(/C=N/n2c(-c3ccccc3Br)n[nH]c2=S)cc1 | inactive: 6.59%
O=C(Nc1ccc(Cl)cc1)C1C2C=CC3(O2)C1C(=O)N(CCN1CCCCC1)C3C(=O)NC1CCCCC1 (configuration not stated) | inactive: 19.3%
COc1ccccc1NC(=O)CNC(c1ccccc1)c1ccccc1 | inactive: 14.7%
O=C(CCS(=O)(=O)c1ccccc1)Nc1nnc(C(F)(F)F)s1 | inactive: -4.93%
COCC(=O)NNS(=O)(=O)c1ccccc1[N+](=O)[O-] | inactive: -14.4%
COc1cc(/C=N/N=C2/NC(=O)C(CC(=O)O)S2)ccc1OCc1cccc(Cl)c1 (configuration not stated) | inactive: 28.7%
COC(=O)CNc1cc(S(=O)(=O)N2CCCCC2)ccc1Oc1ccc(C(=O)OC)cc1 | inactive: -0.358%
Cc1ccc(NC(=O)N(CCCN2CCOCC2)Cc2cc3cc4c(cc3[nH]c2=O)OCO4)cc1 | inactive: -9.56%
Nc1ccc(Br)c[n+]1Cc1cccc2cccnc12 | inactive: -2.22%
O=C(CSc1ncnc2sccc12)Nc1ccc(S(=O)(=O)N2CCOCC2)cc1 | inactive: -2.78%
CCNC(=O)CN(c1ccc(Oc2ccccc2)cc1)S(=O)(=O)c1ccccc1 | inactive: 13.3%
Cc1cc(Cl)ccc1Oc1ccc(C(N)=O)cc1[N+](=O)[O-] | inactive: 11.3%
O=C(C1CCN(S(=O)(=O)c2ccc(Br)s2)CC1)N1CCN(C2CCCCC2)CC1 | inactive: 9.07%
